{"source": "paper PMC4336329", "about": "(PLoS ONE, 2015)", "note": "Hit rate of the full screen: of about 310,000 compounds, about 14,000 (4.5%) showed an effect of 50% or more. The effect is printed as a negative number. Some of the results follow.", "data": [{"target": "human ether-à-go-go-related gene (hERG) potassium channel (human, UniProt Q12809)", "sequence (Q12809 whole entry, looked up)": "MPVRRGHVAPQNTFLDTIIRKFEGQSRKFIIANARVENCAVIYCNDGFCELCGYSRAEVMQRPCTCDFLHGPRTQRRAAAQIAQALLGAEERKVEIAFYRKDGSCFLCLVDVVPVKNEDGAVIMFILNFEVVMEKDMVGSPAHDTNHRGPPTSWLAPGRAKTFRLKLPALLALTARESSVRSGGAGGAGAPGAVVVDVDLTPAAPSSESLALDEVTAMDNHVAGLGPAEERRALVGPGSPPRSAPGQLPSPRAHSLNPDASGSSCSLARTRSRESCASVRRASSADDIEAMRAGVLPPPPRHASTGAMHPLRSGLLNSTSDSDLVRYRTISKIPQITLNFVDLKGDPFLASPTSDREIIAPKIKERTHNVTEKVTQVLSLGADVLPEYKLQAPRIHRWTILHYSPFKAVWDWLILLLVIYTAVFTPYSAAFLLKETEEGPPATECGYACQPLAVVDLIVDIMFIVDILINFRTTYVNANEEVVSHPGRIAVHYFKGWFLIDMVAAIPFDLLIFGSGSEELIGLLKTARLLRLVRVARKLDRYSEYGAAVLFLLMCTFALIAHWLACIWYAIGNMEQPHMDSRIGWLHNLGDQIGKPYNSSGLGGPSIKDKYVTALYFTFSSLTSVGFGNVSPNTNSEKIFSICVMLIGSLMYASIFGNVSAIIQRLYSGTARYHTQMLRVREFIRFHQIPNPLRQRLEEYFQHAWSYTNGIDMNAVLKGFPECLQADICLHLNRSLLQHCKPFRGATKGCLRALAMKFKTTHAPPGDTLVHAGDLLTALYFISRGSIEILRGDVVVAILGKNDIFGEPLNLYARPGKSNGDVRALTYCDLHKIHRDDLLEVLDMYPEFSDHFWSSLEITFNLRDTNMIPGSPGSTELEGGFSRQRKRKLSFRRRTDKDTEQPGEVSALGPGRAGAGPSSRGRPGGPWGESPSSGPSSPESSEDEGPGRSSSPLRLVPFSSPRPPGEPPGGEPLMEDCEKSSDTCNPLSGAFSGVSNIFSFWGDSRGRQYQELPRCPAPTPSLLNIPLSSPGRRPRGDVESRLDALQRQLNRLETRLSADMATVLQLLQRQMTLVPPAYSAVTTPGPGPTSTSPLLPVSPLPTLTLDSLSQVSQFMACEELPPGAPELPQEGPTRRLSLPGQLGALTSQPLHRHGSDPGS", "experiment": "primary screen, population patch clamp on CHO cells stably expressing hERG", "units": {"hERG current change (%, negative = inhibition) at 10uM": "%"}, "values": [{"molecule": "COc1cc2c(cc1OC)C(C)N(C(=O)Nc1ccc(F)cc1)CC2", "note": "(centres unmarked);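 note: peak tail current of the secondary pulse compared with the same well before compound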", "hERG current change (%, negative = inhibition) at 10uM": 10.6}, {"molecule": "COc1ccc(CN(C)S(=O)(=O)c2ccc3c(c2)OCCO3)cc1", "hERG current change (%, negative = inhibition) at 10uM": -15.1}, {"molecule": "CCOc1cc(CNn2nnnc2N)cc(Cl)c1OCC(=O)NC(C)(C)C", "hERG current change (%, negative = inhibition) at 10uM": -13}, {"molecule": "C=CCNC(=O)COc1coc(CN2CCN(Cc3ccccc3)CC2)cc1=O", "hERG current change (%, negative = inhibition) at 10uM": 0.721}, {"molecule": "Cc1ccc(N/C=C(\\C#N)c2ccc(OCCCF)cc2)cc1", "hERG current change (%, negative = inhibition) at 10uM": 5.37}, {"molecule": "CNC(=O)NC(=O)Cn1nc2n(c1=O)-c1ccccc1SC2", "hERG current change (%, negative = inhibition) at 10uM": 5.92}, {"molecule": "COc1cc(CN2CCN(Cc3ccc(SC)cc3)CC2)cc(OC)c1O.O=C(O)C(=O)O", "hERG current change (%, negative = inhibition) at 10uM": -67.9}, {"molecule": "Cc1ccc(S(=O)(=O)N2CCCCC2)cc1C(=O)Nc1ccc(S(=O)(=O)Nc2ncccn2)cc1", "hERG current change (%, negative = inhibition) at 10uM": 11.7}, {"molecule": "CN1CCc2c(sc(NC(=O)C3COc4ccccc4O3)c2C(N)=O)C1.Cl", "note": "(centres unmarked)", "hERG current change (%, negative = inhibition) at 10uM": -43.9}, {"molecule": "COc1cc(C(=O)OCC(=O)NC(=O)NCc2ccccc2)ccc1OC(F)F", "hERG current change (%, negative = inhibition) at 10uM": 15.9}, {"molecule": "CCCCSc1nnc(-c2c[nH]c3ccccc23)n1C", "hERG current change (%, negative = inhibition) at 10uM": -12.4}, {"molecule": "CCOc1ccc(NC(=S)Nc2ccccc2C2CC2)cc1", "hERG current change (%, negative = inhibition) at 10uM": 5.38}, {"molecule": "CCC(C)NC(=O)C1CCCN(S(=O)(=O)c2ccc3c(c2)CC(C)N3C(C)=O)C1", "note": "(centres unmarked)", "hERG current change (%, negative = inhibition) at 10uM": -10.1}, {"molecule": "O=C(NCc1ccco1)c1cc(-c2cccnc2)nc2ccccc12", "hERG current change (%, negative = inhibition) at 10uM": -52.6}, {"molecule": "COc1ccc2cc(CN(CC3CCCO3)S(=O)(=O)c3ccccc3)c(=O)[nH]c2c1", "note": "(centres unmarked)", "hERG current change (%, negative = inhibition) at 10uM": -16.9}, {"molecule": "N#C/C(=C/c1ccc(N2CCCCC2)cc1)c1cccc(F)c1", "hERG current change (%, negative = inhibition) at 10uM": 2.8}, {"molecule": "OC1CCNC(=S)N1c1ccccc1", "note": "(centres unmarked)", "hERG current change (%, negative = inhibition) at 10uM": 18}, {"molecule": "COc1cccc(NC(=O)CN2C(=O)COc3ccc(S(=O)(=O)N4CCC(C)CC4)cc32)c1", "hERG current change (%, negative = inhibition) at 10uM": 4.62}, {"molecule": "CC(C(=O)N1CCCC1)N1CCN(S(=O)(=O)c2ccc(OC(F)(F)F)cc2)CC1", "note": "(centres unmarked)", "hERG current change (%, negative = inhibition) at 10uM": -22.4}, {"molecule": "COC(=O)C1=C(N)Oc2cc(C)n(Cc3ccncc3)c(=O)c2C1c1cccnc1", "note": "(centres unmarked)", "hERG current change (%, negative = inhibition) at 10uM": -14.8}, {"molecule": "CCCn1c(C)cc(/C=C(\\C#N)C(=O)OCC(=O)N(C)c2c(N)n(Cc3ccccc3)c(=O)[nH]c2=O)c1C", "hERG current change (%, negative = inhibition) at 10uM": -5.6}, {"molecule": "Cc1nnc(C)n1N1C(=O)c2cccc3cccc(c23)C1=O", "hERG current change (%, negative = inhibition) at 10uM": -0.353}, {"molecule": "COc1cccc(OCC(=O)Nc2ccccc2C(=O)Nc2ccc(C(=O)O)cc2)c1", "hERG current change (%, negative = inhibition) at 10uM": 23.7}, {"molecule": "O=C(Nc1ccccc1)c1cc(S(=O)(=O)Nc2cccnc2)ccc1Cl", "hERG current change (%, negative = inhibition) at 10uM": -3.06}, {"molecule": "Cc1ccc(CN2CC(C(=O)NC3CCCC(C)C3C)CC2=O)cc1", "note": "(centres unmarked)", "hERG current change (%, negative = inhibition) at 10uM": -30.1}, {"molecule": "Cc1cc(C)c(NC(=O)CN(C)S(=O)(=O)c2ccc3c(c2)n(C)c(=O)c(=O)n3C)c(C)c1", "hERG current change (%, negative = inhibition) at 10uM": 11.6}, {"molecule": "Cc1cc(N/C=C\\C(=O)c2ccc(Cl)c(Cl)c2)no1", "hERG current change (%, negative = inhibition) at 10uM": 5.3}, {"molecule": "O=C(NCCSc1c[nH]c2ccccc12)c1c(F)cccc1F", "hERG current change (%, negative = inhibition) at 10uM": -9.73}, {"molecule": "O=C(COc1nnnc2ccccc12)N1CCCc2ccccc21", "hERG current change (%, negative = inhibition) at 10uM": -15.1}, {"molecule": "CC(C)OC(=O)C(CC(=O)O)N1CCOCC1", "note": "(centres unmarked)", "hERG current change (%, negative = inhibition) at 10uM": 5.39}, {"molecule": "Cc1cc2c(cn1)C(CCC#N)(CCC#N)c1ccccc1-2", "hERG current change (%, negative = inhibition) at 10uM": 12}, {"molecule": "O=S1(=O)[C@H]2C[C@@H]3C=C[C@@]2(CN1Cc1cccc(C(F)(F)F)c1)O3", "hERG current change (%, negative = inhibition) at 10uM": 5.74}, {"molecule": "Cc1cc(C)c2c(c1)-c1cc(C)nn1C(c1ccc3c(c1)OCO3)N2", "note": "(centres unmarked)", "hERG current change (%, negative = inhibition) at 10uM": -5.04}, {"molecule": "CCOc1ccc2nc(N3CCOCC3)nc(C)c2c1", "hERG current change (%, negative = inhibition) at 10uM": 3.2}, {"molecule": "Cn1c(Cc2ccccc2)n[nH]c1=S", "hERG current change (%, negative = inhibition) at 10uM": 24.8}, {"molecule": "O=C(NCCCn1ccnc1)c1ccc2nccnc2c1", "hERG current change (%, negative = inhibition) at 10uM": 4.78}, {"molecule": "CCOC(=O)C1=C(CC)NC2=C(C(=O)CCC2)C1c1ccc(OC)c(OC)c1", "note": "(centres unmarked)", "hERG current change (%, negative = inhibition) at 10uM": -8.32}, {"molecule": "Cn1c(N)c(C(=O)NCc2ccccc2)sc1=S", "hERG current change (%, negative = inhibition) at 10uM": 7.42}, {"molecule": "CC(=O)NC1CC2CCCC(C1)N2CC(=O)Nc1ccccc1", "note": "(centres unmarked)", "hERG current change (%, negative = inhibition) at 10uM": 4.65}, {"molecule": "CC(C)CC(NC(=O)C1CCCCC1)C(=O)NCc1ccccn1", "note": "(centres unmarked)", "hERG current change (%, negative = inhibition) at 10uM": 17.6}, {"molecule": "CC(C)Oc1ccc(/C=N/NC(=O)c2nnn(-c3nonc3N)c2CN(C)C2CCCCC2)cc1", "hERG current change (%, negative = inhibition) at 10uM": -0.892}, {"molecule": "N#Cc1c(C(F)(F)F)cc(-c2ccc(Cl)cc2)[nH]c1=O", "hERG current change (%, negative = inhibition) at 10uM": 29.2}, {"molecule": "O=C(NC1CC1)C1=C[C@@H](c2ccc(C(F)(F)F)cc2)C[C@@H](OCc2ccc(CO)cc2)O1", "hERG current change (%, negative = inhibition) at 10uM": -63.2}, {"molecule": "CCOC(=O)c1c(-c2ccc(F)cc2)csc1/N=C/N(C)C", "hERG current change (%, negative = inhibition) at 10uM": 2.67}, {"molecule": "O=[N+]([O-])c1ccc(/C=N/NC(=S)Nc2ccc(Cl)cc2Cl)s1", "hERG current change (%, negative = inhibition) at 10uM": 11.3}, {"molecule": "CCOc1ccc(CNc2nnnn2C)cc1", "hERG current change (%, negative = inhibition) at 10uM": 14}, {"molecule": "O=C(NCC1COc2ccccc2O1)c1cccc(S(=O)(=O)N2CCOCC2)c1", "note": "(centres unmarked)", "hERG current change (%, negative = inhibition) at 10uM": -26.9}, {"molecule": "CCCCCNC(=O)c1cccnc1SCC(=O)Nc1ccccc1OC", "hERG current change (%, negative = inhibition) at 10uM": -65.6}, {"molecule": "O=C(c1ccc(Cl)c(S(=O)(=O)N2CCCCCC2)c1)N1CCN(c2ccccn2)CC1", "hERG current change (%, negative = inhibition) at 10uM": -63.6}, {"molecule": "COc1ccc(C2CC(=O)N3CN(c4ccc(C)c(Cl)c4)CSC3=C2C#N)cc1", "note": "(centres unmarked)", "hERG current change (%, negative = inhibition) at 10uM": 18.1}, {"molecule": "O=C(Nc1ccc(Oc2nnc(-c3ccccc3)c3ccccc23)cc1)c1ccccc1", "hERG current change (%, negative = inhibition) at 10uM": -2.16}, {"molecule": "Cc1sc2ncnc(NC3CCN(Cc4ccccc4)CC3)c2c1C", "hERG current change (%, negative = inhibition) at 10uM": -79.6}, {"molecule": "CCOc1cc(/C=N/N=C2/NC(=O)C(CC(=O)O)S2)ccc1OCc1ccc(Cl)cc1Cl", "note": "(centres unmarked)", "hERG current change (%, negative = inhibition) at 10uM": 18}, {"molecule": "CCOC(=O)N1CCN(C(=O)c2n[nH]c(=O)c3ccccc23)CC1", "hERG current change (%, negative = inhibition) at 10uM": 3.8}, {"molecule": "CCOC(=O)C1CCN(Cc2oc(CO)cc(=O)c2O)CC1", "hERG current change (%, negative = inhibition) at 10uM": -2.99}, {"molecule": "CCn1c(-c2csc(-c3ccccc3)n2)n[nH]c1=S", "hERG current change (%, negative = inhibition) at 10uM": 13}]}]}
